# Measured values: PubChem BioAssay (Tox21)
# Where “and” joins values, the source holds several entries; their conditions need not be identical. Equal values may be shown once. The inconclusive results got no clear call from the source; some entries with a clear call stand among them for comparison. Where the call is inconclusive, the potency comes from a doubtful curve fit. Some structures have more than one record in an assay (separate samples or runs), and their calls can disagree. Calls of active or inactive are those of the source. Calls come from the whole dose curve; as a rule, active = well fitted activation curve with a large enough effect in the repeat runs; inconclusive = weak or mixed curves; inactive = flat fitted curve, though single readings scatter.
# Experiment: A CellTox Green Cytotoxicity Assay to monitor cytotoxicity in HepG2 cells - 32 hour (AID 1224883); note: nearly all actives have a fitted effect of over 50% in size
# Conditions: CellTox Green fluorescence; series mostly up to 76.8 µM
# How it was run: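 Fluorescent DNA-binding dye, 600 HepG2 cells/well, 5 h preincubation then compound in DMSO; same plates read at 0–40 h, 37 C.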
# Potency is the fitted concentration of half-maximal effect; tags give direction and shape of the fitted curve.
row,SMILES,Potency
1,CCCCCC(C)OC(=O)COc1ccc(Cl)c2cccnc12 (configuration not stated),"inconclusive: 54.9 µM [activator, single point]"
2,CCN(CC)CCCC(C)Nc1c2ccc(Cl)cc2nc2ccc(OC)cc12 (configuration not stated),active: 6.74 µM
3,COC(=O)C1=C(C)NC(C)=C(C(=O)OC(C)(C)CN(C)CCC(c2ccccc2)c2ccccc2)C1c1cccc([N+](=O)[O-])c1 (configuration not stated),inactive
4,CC1(C)O[C@@H]2C[C@H]3[C@@H]4C[C@H](F)C5=CC(=O)CC[C@]5(C)[C@H]4[C@@H](O)C[C@]3(C)[C@]2(C(=O)CO)O1,active: 43.6 µM and inactive
5,c1csc(SSc2cccs2)c1,"inconclusive: 54.9 µM [activator, single point]"
6,COc1cc2ncnc(Nc3ccc(F)c(Cl)c3)c2cc1OCCCN1CCOCC1,active: 23.9 µM
7,CC1=CC[C@H]2C[C@@H]1C2(C)C,"inconclusive: 55.5 µM [activator, single point]"
8,CCCCCCCCC,"inconclusive: 61.6 µM [activator, single point]"
9,CCC(=O)c1ccc2c(c1)N(CCCN(C)C)c1ccccc1S2,"inconclusive: 26.8 µM [activator, single point]"
10,NS(=O)(=O)c1cc(C(=O)O)c(NCc2ccco2)cc1Cl,active: 19.6 µM
11,Nc1cc(Cl)c(N)c(Cl)c1,"inconclusive: 54.5 µM [activator, single point]"
12,CC(C)OC(=O)c1cc2c(OCC(O)CNC(C)(C)C)cccc2[nH]1 (configuration not stated),"inconclusive: 23.9 µM [activator, single point]"
13,O=S1(=O)OC(c2ccc(O)cc2)(c2ccc(O)cc2)c2ccccc21,inactive
14,CC/C=C\CCCCCO,"inconclusive: 61.7 µM [activator, single point]"
15,CCCCOC(=O)c1ccc(O)cc1,"inconclusive: 62.4 µM [activator, single point] and inconclusive: 54.9 µM [activator, single point]"
16,CC1C2CC(CC2C2CCCC(O)C2)C1(C)C (configuration not stated),active: 43.6 µM

row,SMILES,Potency
1,O=C1c2ccccc2C(=O)C1c1nc2ccccc2c(Br)c1O,"inconclusive: 21.9 µM [activator, partial curve, poor fit]"
2,C=C1C2CCC(C2)C1(C)C (configuration not stated),"inconclusive: 21.9 µM [activator, single point]"
3,O=C(OCCOCCO)c1ccccc1Nc1cccc(C(F)(F)F)c1,"inconclusive: 26.8 µM [activator, partial curve, poor fit]"
4,CN(C)CC/C=C1\c2ccccc2Sc2ccc(Cl)cc21,active: 21.3 µM
5,CN(C)c1ccc(C(=N)c2ccc(N(C)C)cc2)cc1,active: 4.84 µM and active: 18.8 µM
6,CC(C)n1c(/C=C/[C@@H](O)C[C@@H](O)CC(=O)O)c(-c2ccc(F)cc2)c2ccccc21,active: 4.36 µM and active: 9.52 µM
7,COc1ccc(-c2coc3cc(O)cc(O)c3c2=O)cc1,"inconclusive: 62.2 µM [activator, partial curve, poor fit] and inconclusive: 61.7 µM [activator, single point]"
8,O=c1[nH]cnc2c1ncn2[C@H]1CC[C@@H](CO)O1,inactive
9,Oc1ccc2c(c1)-c1ccccc1C2,active: 49 µM
10,CO[C@@H]1[C@@H](OC)[C@H](C)[C@@](O)(CC(=O)O)O[C@H]1[C@H](C)[C@H]1O[C@@]2(CC[C@@](C)([C@H]3CC[C@@](C)([C@@H]4O[C@@H]([C@H]5O[C@](C)(O)[C@H](C)C[C@@H]5C)C[C@@H]4OC4C[C@H](OC)[C@@H](OC)[C@H](C)O4)O3)O2)C[C@H](O)[C@H]1C (some centres not stated),active: 9.52 µM
11,CCCCCc1ccc(O)cc1,active: 49 µM
12,CC1=Nc2ccc3ccccc3c2C1(C)C,"inconclusive: 54.9 µM [activator, single point]"
13,CCCCC(CC)COC(=O)/C=C\C(=O)OCC(CC)CCCC (configuration not stated),inactive
14,NC(=O)C(c1ccccc1)(c1ccccc1)[C@@H]1CCN(CCc2ccc3c(c2)CCO3)C1,active: 23.9 µM
15,COC(=O)C1=C(C)NC(C)=C(C(=O)OCC(C)=O)C1c1ccccc1[N+](=O)[O-] (configuration not stated),inactive
16,COc1cc(Nc2c(C#N)cnc3cc(OCCCN4CCN(C)CC4)c(OC)cc23)c(Cl)cc1Cl,active: 9.52 µM
